Measured values taken from paper PMC12040169 (PLOS Biology, 2025).
The list shows a part of the results.

System: T1, C. trachomatis L2/434/Bu expressing GFP (CTL2-GFP)
T1 construct: L2/434/Bu GFP intracellular growth in HeLa cells
Design: species or system HeLa; C. trachomatis total inclusion area by high-content imaging, normalised to DMSO
Conditions: total inclusion area; 28.5 h, 10 µM; inhibitor
How it was run: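 Following bulk GFP and resorufin fluorescence reads, infected cells were fixed, Hoechst-stained and imaged on a high-content platform. Inclusion total area and number per well served as growth proxies; nuclei counts indicated host viability. MICs were derived as for the fluorescence assay.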

SMILES	% of control remaining
Cn1cc(C(=O)Nc2c(F)cc(F)cc2OC2CCNCC2)c2ccccc21 [CBK050328T]	80.1574
Oc1ccc(-n2ncc(-c3cccc(C(F)(F)F)c3)n2)cc1 [CBK112677]	57.8956
CC1(C)CCCC2=C1CC(C(=O)O)C(C(=O)O)C2 (stereo not drawn) [CBK272329]	105.472
COc1ccc2c(C)c(CCC(=O)N(C)CC(=O)O)c(=O)oc2c1 [CBK286731]	41.273
CC(C)(C)CNc1ccc(S(=O)(=O)N2CCOC2=O)cc1 [CBK028347]	86.4532
CCc1nn(CCN2CCCC2)c(=O)c2cc3sccc3n12 [CBK284075]	91.7311
O=C(CCN1C(=O)c2ccccc2C1=O)N(CCO)Cc1ccccc1 [CBK265565]	43.3892
CCCc1cc(C2CCCCCN2C(=O)c2c(C)noc2C)no1 (stereo not drawn) [CBK284919]	102.571
CC1=C[C@@H](CO)[C@H](C(C)C)C[C@H]1CC(=O)NCc1cccnc1 [CBK289218]	86.9069
CCC(C)NC(=O)C1(Cc2cccc(-c3ccc(OC)cc3)c2)CCOCC1 (stereo not drawn) [CBK286513]	96.8386
COc1ccc(C2CCN(CC(=O)NC3CCCC3)CC2)cc1 [CBK283565]	65.0975
COc1cc(S(=O)(=O)N2CCCN(S(=O)(=O)c3cc(OC)c(Cl)cc3OC)CC2)c(OC)cc1Cl [CBK266489]	124.832
CS(=O)(=O)N1CC2(CCN(Cc3cccc4cccnc34)CC2)c2ccccc21 [CBK136955]	94.5557
COCC(C)NC(=O)CCn1ccc2ccncc21 (stereo not drawn) [CBK285172]	101.07
O=C(Nc1sccc1C(=O)N1CCOCC1)C(Sc1ccccc1)c1ccccc1 (stereo not drawn) [CBK268165]	84.2252
Cc1nc(C)n(CC2CCCN(Cc3cn4ccccc4n3)C2)n1 (stereo not drawn) [CBK304028]	63.671
Cn1nnc2cc(C(=O)NCCN3CCCCC3CO)ccc21 (stereo not drawn) [CBK307268]	95.8986
CNC(=O)c1cnn2c(C)c(Cc3cccnc3)c(C)nc12 [CBK162165]	98.8553
COC(=O)[C@H](NC(=O)C1CCN(C(=O)OCc2ccccc2)CC1)c1ccccc1 [CBK081466]	86.3148
COc1cc(CN2CCN(Cc3cccc([N+](=O)[O-])c3)CC2)c([N+](=O)[O-])cc1OC [CBK263111]	103.971

SMILES	% of control remaining
O=C(NCCCc1nc2ccccc2[nH]1)c1ccccc1 [CBK268429]	118.258
COc1ccccc1NC(=O)Cn1cnc2sc(C(=O)NC(C)C)c(C)c2c1=O [CBK071847]	83.4051
Cc1cc(C)cc(C(=O)NC(=S)Nc2sc(C)c(C)c2C#N)c1 [CBK267089]	119.434
CN(C)c1ccc(C=C2CCCC3C2=NN(C(=O)CCC(=O)O)C3c2ccc(N(C)C)cc2)cc1 (stereo not drawn) [CBK296065]	117.27
c1cc2c(cc1CNc1nnn[nH]1)OCO2 [CBK018783]	65.8296
CC(=O)Nc1sc2c(c1C(=O)O)CCc1ccccc1-2 [CBK126812]	0.9737
CCOc1cc(NC2CCN(C(=O)C3(CCOC)CC3)CC2)ncn1 [CBK304434]	42.462
O=C(c1cccs1)N1CCN(S(=O)(=O)c2cccc([N+](=O)[O-])c2)CC1 [CBK266184]	110.708
Cc1cc(C(=O)CN(C)S(=O)(=O)c2ccc(Cl)c(Cl)c2)c(C)n1C [CBK295661]	106.514
COc1ccc(Oc2nccc(N3CCCN(Cc4ccc(C(F)(F)F)cc4)CC3)n2)cc1OC [CBK084152]	70.651
O=C(NCc1ccc(-c2csnn2)cc1)c1c(F)cccc1F [CBK149310]	83.5114
CN1CCC(N(C)S(=O)(=O)c2ccc(C(C)(C)C)cc2)C1 (stereo not drawn) [CBK059036T]	39.2453
O=C(Nc1ccc(S(=O)(=O)N2CCCCC2)cc1)c1ccc(CN2CCOCC2)cc1 [CBK264002]	82.6269
CC(=O)NS(=O)(=O)c1ccc(NC(=O)/C=C/c2cccc([N+](=O)[O-])c2)cc1 [CBK300492]	97.713
CS(=O)(=O)NCC1CCCN(C(=O)Nc2cccc(Cl)c2)C1 (stereo not drawn) [CBK305736]	83.7636
CC(CCc1ccc(O)cc1)NC1CCCC1 (stereo not drawn) [CBK033987]	64.9322
Cc1noc(C)c1CC(=O)NCC(C)(C)N1CCCCC1 [CBK281863]	100.141
O=[N+]([O-])c1ccc(Sc2ccccc2C2=NCCCN2)nc1 [CBK006747C]	94.4582
CC[C@H]1CN(C(=O)c2cccnc2)CC[C@H]1CC(=O)NCc1cccs1 [CBK288773]	75.6951
